Whole data set: some 33,000 sequences, median “E-score (-0.5 to 0.5)” near -0.041, cut for the highest 2% near 0.37. The list shows a part of the results.
Target: T1, Ecm22 (UniProt Q05958)
T1 sequence: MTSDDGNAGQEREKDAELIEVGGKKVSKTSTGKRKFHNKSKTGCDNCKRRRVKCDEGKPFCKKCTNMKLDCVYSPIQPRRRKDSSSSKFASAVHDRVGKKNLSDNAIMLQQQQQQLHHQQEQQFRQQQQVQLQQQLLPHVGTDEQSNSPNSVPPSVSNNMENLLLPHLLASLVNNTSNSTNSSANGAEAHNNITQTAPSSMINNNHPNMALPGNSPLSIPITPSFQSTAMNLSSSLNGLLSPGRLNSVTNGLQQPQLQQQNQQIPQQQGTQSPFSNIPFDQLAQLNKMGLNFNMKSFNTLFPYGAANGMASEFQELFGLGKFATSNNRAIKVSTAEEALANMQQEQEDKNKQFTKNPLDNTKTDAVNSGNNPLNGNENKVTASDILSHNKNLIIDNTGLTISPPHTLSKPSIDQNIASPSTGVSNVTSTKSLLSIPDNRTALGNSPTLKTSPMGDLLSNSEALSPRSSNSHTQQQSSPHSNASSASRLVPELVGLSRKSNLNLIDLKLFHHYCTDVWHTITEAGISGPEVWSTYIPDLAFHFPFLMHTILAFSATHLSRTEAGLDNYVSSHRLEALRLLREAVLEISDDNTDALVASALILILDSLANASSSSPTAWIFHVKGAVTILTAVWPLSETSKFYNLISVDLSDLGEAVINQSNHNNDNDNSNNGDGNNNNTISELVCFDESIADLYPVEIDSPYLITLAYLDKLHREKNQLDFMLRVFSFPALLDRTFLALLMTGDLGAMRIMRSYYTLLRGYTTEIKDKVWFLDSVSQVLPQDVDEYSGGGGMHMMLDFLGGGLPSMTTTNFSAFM
Experiment: PBM E-score (8-mer binding enrichment) (E-score (-0.5 to 0.5)); higher = stronger / more preferred TF binding; most listed sequences are background and not binding sites
Conditions: protein concentration: 200 nM; construct: GST-full length
Method in brief: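 Yeast transcription factors carrying a GST tag, as full-length proteins or DNA-binding domains, were produced by PURExpress in vitro transcription/translation. About 100-200 nM protein was applied to universal all-10-mer Agilent arrays, double-stranded by primer extension on fresh or once-stripped slides. Bound protein was detected with fluorescent anti-GST, and scans were normalised with masliner. The Universal PBM Analysis Suite gave each ungapped eight-base word, pooled with its reverse complement, an E-score, a modified Wilcoxon-Mann-Whitney statistic.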

Going from ACTCAACG to ATAGGTGG, the “PBM E-score” value falls from 0.106 to -0.0501.

Compared with ACTTAAGG, ACGGCGCT is higher in “PBM E-score” value: -0.138 for the first, 0.129 for the second.

First: ATATACAA
Second: GATCACAA
The “PBM E-score” value of the first is higher: 0.0401 for the first, -0.0118 for the second.

Going from TATCAAAA to CTCGTCAC, the “PBM E-score” value rises from -0.138 to 0.0816.

Compared with ACTACATC, CAACTTTA is higher in “PBM E-score” value: -0.0932 for the first, 0.105 for the second.

Compared with GAAACGGC, CCAAGCAC is lower in “PBM E-score” value: 0.2 for the first, -0.0787 for the second.

Compared with GCCCGAGA, GGACGAAC is higher in “PBM E-score” value: 0.00137 for the first, 0.111 for the second.

Compared with AAATAATG, CCGAATAC is higher in “PBM E-score” value: 0.108 for the first, 0.253 for the second.

Compared with GCTAAGCA, CGTTGTAA is higher in “PBM E-score” value: -0.173 for the first, 0.0953 for the second.

Going from ACCCTGGC to GTAAGATA, the “PBM E-score” value rises from -0.177 to 0.137.

Compared with CACATTGA, AACGTAGT is higher in “PBM E-score” value: -0.00041 for the first, 0.111 for the second.

Compared with ATATGGTA, GGTGTTAA is lower in “PBM E-score” value: 0.186 for the first, 0.0977 for the second.

Compared with GCCGGTCA, CGAGTTAC is higher in “PBM E-score” value: -0.223 for the first, 0.253 for the second.

Going from ACCATTGC to GCGAAACA, the “PBM E-score” value rises from -0.00099 to 0.0787.

First: CTCACGAG
Second: CTCAATTC
The “PBM E-score” value of the first is lower: 0.0975 for the first, 0.132 for the second.

Going from AGAGGTTC to ATCATGCA, the “PBM E-score” value falls from -0.105 to -0.298.

Compared with GTGTGTAA, AGAACCAC is higher in “PBM E-score” value: -0.196 for the first, -0.149 for the second.

Compared with ACGATCGT, GTGGGGAA is lower in “PBM E-score” value: 0.43 for the first, 0.0882 for the second.

First: GGCCTGTA
Second: CCTCTTGA
The “PBM E-score” value of the first is lower: -0.291 for the first, -0.188 for the second.

First: CTGCGCAC
Second: AAGGCCAT
The “PBM E-score” value of the first is lower: -0.196 for the first, 0.0113 for the second.

Going from GGGGGCGA to AGTCTCAC, the “PBM E-score” value falls from -0.0785 to -0.109.

Compared with CATGAACG, CTGCGTAC is higher in “PBM E-score” value: 0.246 for the first, 0.252 for the second.

Compared with CTGGCACC, AATCGATT is higher in “PBM E-score” value: -0.282 for the first, 0.0191 for the second.

Going from CAGCCACA to CCCAAGCC, the “PBM E-score” value rises from -0.24 to -0.103.

First: CAACGGTA
Second: ATAAGGAC
The “PBM E-score” value of the first is higher: 0.0958 for the first, -0.131 for the second.

First: ACACGTGC
Second: ACGGGAGC
The “PBM E-score” value of the first is lower: -0.0804 for the first, 0.225 for the second.

First: CACAGCAG
Second: CCAGATGA
The “PBM E-score” value of the first is higher: -0.0262 for the first, -0.112 for the second.

First: TAGGTCCA
Second: TATCTTAA
The “PBM E-score” value of the first is higher: -0.00993 for the first, -0.118 for the second.

Compared with ATTATCAC, AATACGTA is higher in “PBM E-score” value: 0.025 for the first, 0.228 for the second.

First: ATTAGCAA
Second: ACCGCCGC
The “PBM E-score” value of the first is lower: 0.00504 for the first, 0.207 for the second.

Going from AAAGGTTA to TATCGTAA, the “PBM E-score” value rises from -0.0621 to 0.363.

Compared with ACCGCGTC, AAAAGCAG is lower in “PBM E-score” value: 0.103 for the first, -0.159 for the second.

Going from GGTGATAC to GCATGGCA, the “PBM E-score” value rises from -0.103 to -0.00697.

Compared with CACCGCAC, GCGAAACC is higher in “PBM E-score” value: 0.0408 for the first, 0.0505 for the second.

Compared with ACGGGTAA, CAGCTTGG is lower in “PBM E-score” value: 0.192 for the first, -0.186 for the second.

Compared with GAGGCCCC, AGGCCCAT is higher in “PBM E-score” value: -0.232 for the first, -0.148 for the second.

Going from CTAACCTC to GCGCCCAA, the “PBM E-score” value rises from -0.0491 to 0.00566.

First: TCTATAGA
Second: AAAGGAAC
The “PBM E-score” value of the first is lower: -0.293 for the first, 0.207 for the second.

First: CCGAGAGC
Second: TAGAGTAA
The “PBM E-score” value of the first is higher: 0.114 for the first, 0.0969 for the second.

Compared with AGATCAAG, AAGGTTCG is lower in “PBM E-score” value: 0.131 for the first, 0.0617 for the second.

First: GTTGGCAA
Second: TATGTGAA
The “PBM E-score” value of the first is higher: 0.106 for the first, -0.0244 for the second.

First: GCCTAACC
Second: CAAAGTCC
The “PBM E-score” value of the first is higher: -0.0825 for the first, -0.0879 for the second.

First: CCCCTTCG
Second: CAGCGCCG
The “PBM E-score” value of the first is lower: -0.0136 for the first, 0.0283 for the second.

First: GCACATAA
Second: AACCTGCC
The “PBM E-score” value of the first is higher: 0.027 for the first, -0.223 for the second.

First: CCAGGTAC
Second: CAGCAGAC
The “PBM E-score” value of the first is higher: 0.0984 for the first, -0.0313 for the second.

Compared with CGGAGAAA, CCGTGTCC is lower in “PBM E-score” value: 0.244 for the first, -0.0456 for the second.

Going from ACGTATCA to CCAGGTAA, the “PBM E-score” value falls from 0.281 to 0.0558.

Compared with AACTAATA, GGGAATCA is lower in “PBM E-score” value: 0.098 for the first, -0.171 for the second.

Compared with CAAAGCCG, TAAAGGCA is lower in “PBM E-score” value: 0.0156 for the first, -0.0439 for the second.

First: ACAAAAGT
Second: AAGGGACG
The “PBM E-score” value of the first is higher: -0.0624 for the first, -0.12 for the second.

First: CGAGTAGA
Second: ACTTGATG
The “PBM E-score” value of the first is higher: 0.198 for the first, -0.139 for the second.

First: ACAAAATC
Second: ACCTGCGT
The “PBM E-score” value of the first is lower: -0.103 for the first, 0.0491 for the second.

Going from GGGTTGAA to ATCAGTCC, the “PBM E-score” value falls from -0.0994 to -0.316.

First: CCTTAAGG
Second: CGCATACG
The “PBM E-score” value of the first is lower: 0.119 for the first, 0.385 for the second.

First: CGCTAGGA
Second: AACCACAT
The “PBM E-score” value of the first is lower: -0.206 for the first, -0.121 for the second.

First: GAAGTAGC
Second: GATGGGGA
The “PBM E-score” value of the first is lower: -0.106 for the first, -0.103 for the second.

First: GGCCTTTA
Second: GTGGCCAA
The “PBM E-score” value of the first is higher: -0.0923 for the first, -0.227 for the second.

Going from CTGTCCGC to TGATAGCA, the “PBM E-score” value falls from 0.0898 to -0.0351.

Going from AAATGATA to ATGTAAAT, the “PBM E-score” value falls from 0.198 to -0.1.

Going from GACTTTCA to GACAACCC, the “PBM E-score” value rises from -0.269 to 0.0885.

Compared with ATACACGG, AGCGGATG is lower in “PBM E-score” value: 0.0678 for the first, 0.0566 for the second.

Compared with AGAGCTAC, ATTCAGAA is higher in “PBM E-score” value: -0.205 for the first, -0.149 for the second.

Compared with CGGCACTC, CCGAAGGA is higher in “PBM E-score” value: -0.174 for the first, 0.0738 for the second.

Compared with CACGATCC, GCACAAGC is lower in “PBM E-score” value: 0.125 for the first, -0.049 for the second.

Compared with AGGGGCCC, CTAATTAG is higher in “PBM E-score” value: -0.23 for the first, -0.0197 for the second.

First: AAGCGCTT
Second: CATGGCCC
The “PBM E-score” value of the first is higher: 0.004 for the first, -0.201 for the second.

First: ATCCGGTG
Second: CCGTATAC
The “PBM E-score” value of the first is lower: 0.0947 for the first, 0.456 for the second.

Going from CCGAGACA to CGGTGCAC, the “PBM E-score” value falls from 0.0867 to 0.0613.

Going from CTATAGCC to ACTATTCA, the “PBM E-score” value rises from -0.154 to 0.0653.

Going from CTCCAGAC to GGGACAAA, the “PBM E-score” value falls from -0.0442 to -0.216.

Going from CGGTTCCC to CAACCGCC, the “PBM E-score” value falls from 0.0968 to -0.215.

Going from TAGGTTAA to CTTATGTC, the “PBM E-score” value rises from -0.126 to -0.0821.

Compared with TCCGTTAA, CGACGTTA is higher in “PBM E-score” value: 0.194 for the first, 0.196 for the second.

First: ACTACGGC
Second: CAAGCGGC
The “PBM E-score” value of the first is higher: -0.0479 for the first, -0.058 for the second.

Compared with GACGCGGC, CTCTTTAC is lower in “PBM E-score” value: -0.0863 for the first, -0.115 for the second.

Going from ACTTGACA to GTTGTCAA, the “PBM E-score” value rises from -0.15 to 0.036.

Going from GCTATTAA to GGAATACC, the “PBM E-score” value rises from -0.0627 to 0.0748.

Going from AGAAAACC to GCACATGA, the “PBM E-score” value falls from -0.0519 to -0.199.

Compared with CCCGGTCA, TCACTTAA is higher in “PBM E-score” value: -0.281 for the first, -0.0701 for the second.

Going from GTAATACA to ACCATTAG, the “PBM E-score” value falls from 0.122 to -0.169.

Compared with AAGCCCCT, ATATTGAC is lower in “PBM E-score” value: -0.128 for the first, -0.147 for the second.

Compared with GTCTCTGA, AATGTCAC is lower in “PBM E-score” value: -0.0103 for the first, -0.18 for the second.

Compared with CGCTTTAA, ATTCTGTC is higher in “PBM E-score” value: 0.0272 for the first, 0.0892 for the second.

First: ACATAGCT
Second: ACAACCTA
The “PBM E-score” value of the first is lower: -0.2 for the first, -0.044 for the second.

Going from ACATGGCC to TTGACCAA, the “PBM E-score” value falls from -0.0578 to -0.198.

Going from ATAAACTA to CGTAACAA, the “PBM E-score” value rises from 0.0319 to 0.266.
